In PubChem BioAssay AID686978 (National Center for Advancing Translational Sciences (NCATS), 2013):
Among all 420,000 compounds or so, about 64,000 (15%) were called active. The shares of active, inactive and inconclusive entries below differ from those in the screen. The call rests on the fitted dose curve; in most records, active means well fitted inhibition curve with a large enough effect; inconclusive means small, poorly fitted or top-dose-only effect; inactive means flat fitted curve, though single readings scatter. No potency is given beside an inconclusive call; the fits are too rough.

Assay: qHTS for Inhibitors of human tyrosyl-DNA phosphodiesterase 1 (TDP1): qHTS in cells in absence of CPT; further: nearly all actives have a fitted effect of over 55% in size
Conditions: DT40 Tdp1-/- hTDP1 cells, no CPT, ATP luminescence, 48 h; activity change, negative = growth inhibition: at 46.2 µM (top of the series)
Summary of the method: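 Readout: luminescence from CellTiter-Glo after 30 min in the dark at RT. Cells: DT40 Tdp1-/- with stable hTDP1, 400/well. Exposure: compounds alone, ≥48 hr, 37 °C.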
On the % scale 0 is the no-effect control and ±100 the full control effect; potency means the concentration at half of the fitted maximal effect; tags describe the fitted curve by direction and shape.

Row | Compound | Potency | activity change, negative = growth inhibition
1 | CC(C)c1cc(C(=O)NC2CCCCCC2)c2ccccc2n1 | inconclusive [inhibitor, single point] | 
2 | COCCN(CC(=O)Nc1cccc(C)c1C)C(=O)Cn1cnc2ccccc2c1=O | inactive | 
3 | CCOC(=O)[C@]12CCCC=C1N(Cc1cccc3ccccc13)C(=O)[C@H](CC(=O)N1CCCCC1)C2 | active: 25.9 µM | 
4 | Cc1cccc2sc(N(CCN(C)C)C(=O)c3ccc4ccccc4c3)nc12 | inconclusive [inhibitor, single point] | 
5 | COc1ccc(CNC(=O)c2sccc2-c2ccccc2)cc1OC | inconclusive [inhibitor, partial curve] | 
6 | CN(C(=O)c1cccc(NC(=O)Cc2ccc(NC(=O)C3CCCN(S(=O)(=O)c4cccc([N+](=O)[O-])c4)C3)cc2)c1)C1CCC1 (centres undefined) | inconclusive [inhibitor, single point] | 
7 | COCCCNC(=O)c1cc2cc(Br)ccc2oc1=O | inactive | 
8 | CC(NC(=O)C12CC3CC(CC(O)(C3)C1)C2)c1ccccc1 (centres undefined) | inactive | 
9 | CC1=C(C(=O)OC2CCCCCC2)C(c2c(Cl)cccc2Cl)CC(=O)N1 (centres undefined) | inconclusive [inhibitor, single point] | 
10 | CCCC(c1nnnn1CCOC)N1CCN(c2nc3ccccc3s2)CC1 (centres undefined) | inconclusive [inhibitor, single point] | 
11 | Cc1cc(/C=N/NC(=O)C(=O)N2CCCC2)c(C)n1-c1cccc(Br)c1 | inconclusive [inhibitor, single point] | 
12 | CCOc1ccc(C2CC(=O)c3c([nH]c(C(=O)OC4CCCCCC4)c3C)C2)cc1 (centres undefined) | inconclusive [inhibitor, single point] | 
13 | COc1ccc(C(=O)NCC(c2cccs2)S(=O)(=O)c2cccs2)cc1 (centres undefined) | active: 16.4 µM | 
14 | COc1ccc(-c2nnc(SCC(=O)NNC(=O)Cc3ccccc3)n2C)cc1OC | active: 23.1 µM | 
15 | COC(=O)c1c(C)nc2ccccc2c1-c1ccccc1 | inconclusive [inhibitor, partial curve, poor fit] | 
16 | CCOCCc1nn2c(=O)cc(COC(=O)c3ccc4c(c3)OCO4)nc2s1 | inconclusive [inhibitor, single point] | 
17 | Cc1cc(C)cc(C(=O)NCC(=O)OCC(=O)N(C)c2ccccc2)c1 | inconclusive [inhibitor, single point] | 
18 | Cc1ccc(C)c2[nH]c(=O)c(CN(CC3CCCO3)S(=O)(=O)c3ccc4c(c3)OCCO4)cc12 (centres undefined) | active: 16.4 µM | 
19 | CC(C)C(C(=O)NC1CCCCC1)N(CC1CCCO1)C(=O)CNS(=O)(=O)c1ccc(F)cc1 (centres undefined) | inactive | 
20 | COc1ccc(Nc2nc(NC(C)(C)C)nc(N3CCCC3)n2)c(OC)c1 | active: 16.4 µM | 
21 | COc1cc(/C=N\NC(=O)CC#N)ccc1OC/C=C/c1ccccc1 | inconclusive [inhibitor, single point] | 
22 | Cc1cc(C)c(C)c(S(=O)(=O)N2CCN(c3ccc(O)cc3)CC2)c1C | inconclusive [inhibitor, single point] | 

Row | Compound | Potency | activity change, negative = growth inhibition
23 | Cc1ccc(-n2nnnc2CNC(=O)c2ccc([N+](=O)[O-])o2)cc1C | active: 7.31 µM | 
24 | CN(C)S(=O)(=O)c1ccc(Cl)c(NC(=O)CSc2nc3c(cc2C#N)C(=O)CC(C)(C)C3)c1 | inconclusive [inhibitor, partial curve] | 
25 | O=C(Nc1ccc(-n2ccnc2P(=O)(O)c2ccccc2)cc1)c1ccccc1Br | inactive | 
26 | O=C(Nc1ccc(Cl)cc1)c1cnc(-c2ccccc2)nc1-c1ccccc1 | inconclusive [inhibitor, single point] | 
27 | CCCCN(CCCC)Cc1cc(=O)oc2ccccc12 | inconclusive [inhibitor, single point] | 
28 | COc1cc(/C=C2\SC(N)=NC2=O)ccc1OCC(=O)Nc1ccc(C)cc1 | active: 1.46 µM | 
29 | COc1ccccc1CC(=O)OCC(=O)N1CCN(c2ccc(F)cc2)CC1 | inconclusive [inhibitor, single point] | 
30 | O=S(=O)(c1ccc(Br)cc1)N1CCn2cccc2C1c1ccc(Br)cc1 (centres undefined) | active: 16.4 µM | 
31 | COC(=O)[C@]12C(=O)NC[C@H](CN1c1ccc(C(F)(F)F)cc1)N2C | inconclusive [inhibitor, single point] | 
32 | Cn1c(C(=O)Nc2cccc(Cl)c2)cc2c(=O)n(C)c3ccccc3c21 | active: 14.6 µM | 
33 | CN1CCc2c(sc(N)c2C(N)=O)C1 | active: 20.6 µM | 
34 | O=[N+]([O-])c1ccc(OCCN2CCNCC2)cc1 | inconclusive [inhibitor, partial curve] | 
35 | Cc1nc2cc(C)c(C)cc2s1 | inactive | 
36 | N#Cc1ccc(C2N=C(c3ccccc3)NO2)cc1 (centres undefined) | inconclusive [inhibitor, single point] | 
37 | COc1ccc(N(C(=O)c2cccnc2)S(=O)(=O)c2cccc([N+](=O)[O-])c2)cc1 | inconclusive [inhibitor, partial curve] | 
38 | COc1ccc(/C=N/NC(=O)CNC(=O)c2ccncc2)cc1OC | inactive | 
39 | COc1ccc(Cl)cc1NC(=O)CN(C1CCCCC1)S(C)(=O)=O |  | inconclusive: -34.4% [inhibitor]
40 | COc1ccccc1N(CC(=O)NCc1ccccc1)C(=O)CCC(=O)Nc1cc(C)ccn1 | inconclusive [inhibitor, single point] | 
41 | O=C(CN1CCCc2ccccc21)N/N=C/c1ccccc1 | active: 16.4 µM | 
42 | CCC(C(=O)NC1CCCC1)n1c(C2CCCC2)nc2ccccc21 (centres undefined) | inconclusive [inhibitor, single point] | 
43 | CN(C(=O)c1cccc(NC(=O)Cc2cccc([N+](=O)[O-])c2)c1)C1CCCC1 | inconclusive [inhibitor, single point] | 
44 | COc1ccc(OC)c(NC(=O)C2CCN(Cc3cnn(-c4ccccc4)c3-n3cccc3)CC2)c1 | inconclusive [inhibitor, single point] | 
